From PubChem BioAssay AID485294 (National Center for Advancing Translational Sciences (NCATS), 2010)
Out of some 370,000 compounds screened, about 150 (0.041%) were called active. This list was built around the results that the source calls inconclusive (neither active nor inactive); the mix of calls is not that of the screen. Calls follow the shape of the dose curve; as a rule, active = well fitted inhibition curve with a large enough effect; inconclusive = small, poorly fitted or top-dose-only effect; inactive = flat fitted curve, though single readings scatter. No potency is given beside an inconclusive call; the fits are too rough.

Biological target: Beta-lactamase (Escherichia coli (strain K12)) (UniProt P00811)
Chain of UniProt P00811 (P00811 whole entry, looked up): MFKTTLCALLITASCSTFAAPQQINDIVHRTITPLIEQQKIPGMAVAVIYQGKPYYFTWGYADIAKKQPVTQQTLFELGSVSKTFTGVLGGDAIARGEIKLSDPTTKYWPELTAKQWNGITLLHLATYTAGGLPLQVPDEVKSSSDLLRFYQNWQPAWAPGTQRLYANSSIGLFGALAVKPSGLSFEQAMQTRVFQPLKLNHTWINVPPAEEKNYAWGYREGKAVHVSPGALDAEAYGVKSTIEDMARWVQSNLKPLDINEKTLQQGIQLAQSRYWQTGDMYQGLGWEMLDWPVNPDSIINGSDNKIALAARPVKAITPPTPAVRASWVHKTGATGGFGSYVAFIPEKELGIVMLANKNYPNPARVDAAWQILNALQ
Assay: qHTS Inhibitors of AmpC Beta-Lactamase (assay with detergent); also: nearly all actives have a fitted effect of over 25% in size
Conditions: AmpC hydrolysis of nitrocefin, absorbance 480 nm, 0.01% Triton; series mostly up to 114 µM
Method in brief: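 20 mM phosphate pH 7.0 + 0.01% (detergent screen) or 0.0001% Triton X-100; 5.3 nM AmpC reagent; cpd preinc 15 min RT; nitrocefin (800 uM stock) to start; A480 q20 s × 4 min; Activity was normalised to no-enzyme and no-compound control wells.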
Potency is read from the fitted curve at half-maximal effect; tags tell the direction and shape of the fitted curve.

Compound | Potency
COc1cccc(N2CC(NC(=O)c3ccc4c(c3)OCO4)CC2=O)c1 (stereo not given) | inactive
O=[N+]([O-])c1ccccc1S(=O)(=O)N1CCCc2ccccc21 | inconclusive [inhibitor, full curve, poor fit]
COc1ccc(C(=O)Nc2ccc(C(=O)N3CCCCC3)cc2)cc1OC | inconclusive [inhibitor, full curve, poor fit]
CCC(=O)OCCNc1cc(Sc2nccn2C)c2nonc2c1[N+](=O)[O-] | inconclusive [inhibitor, full curve, poor fit]
Cc1cc(=O)oc2cc(OC(=O)C3CCN(C(=O)c4ccc(F)cc4)CC3)ccc12 | inconclusive [inhibitor, full curve, poor fit]
Cc1cc2ncn(/N=C/c3ccc4c(c3)OCO4)c2cc1C | inconclusive [inhibitor, partial curve]
COc1ccc(CNC(=S)Nc2cccc(C)c2)cc1 | inactive
COc1nc(N)c(S(=O)(=O)c2ccccc2)cc1C#N | inactive
N=Cc1c(O)n(-c2ccc(C34CC5CC(CC(C5)C3)C4)cc2)c(=O)[nH]c1=O | inconclusive [inhibitor, single point]
COc1cccc(C(=O)NNC2=C(C(=O)C(F)(F)F)CCC2)c1 | inconclusive [inhibitor, single point]
CSc1ccc(C(=O)C2CCCN(C(=O)c3nn(C)c(=O)c4ccccc34)C2)cc1 (stereo not given) | inconclusive [inhibitor, full curve, poor fit]
CC1CCN(CCc2nc3cc(NC(=O)COc4ccccc4)ccc3n2C)CC1 | inactive
O=C(/C=C/c1ccccc1[N+](=O)[O-])NCC1CCCO1 (stereo not given) | inconclusive [inhibitor, partial curve, poor fit]
COc1ccc(-c2nc(N)ncc2-c2ccccc2OC)c(O)c1 | inactive
Cc1c(C(=O)OCC(=O)NC2CC2)oc2ccc(Br)cc12 | inconclusive [inhibitor, partial curve, poor fit]
CCC(=O)N1CCN(CCN=CC2=C(O)CC(c3cccs3)CC2=O)CC1 (stereo not given) | inconclusive [inhibitor, full curve, poor fit]
CCOc1ccc(C(=O)n2cc(C(=O)OC)c3ccccc32)cc1OCC | inconclusive [inhibitor, full curve, poor fit]
O=C(c1ccccc1)C(c1ccccc1)c1ccccc1 | inconclusive [inhibitor, single point]
Cc1ccc(Cn2ccc(NC(=O)c3cc(CC(C)C)on3)n2)cc1 | inconclusive [inhibitor, full curve, poor fit]
O=Cc1c(N2CCSCC2)nc2ccccn2c1=O | inactive
Cc1nn(-c2ccccc2)c(Cl)c1CN(C(=O)CCl)c1ccc(Cl)cc1 | inconclusive [inhibitor, partial curve, poor fit]
COCCNC(=O)C(c1ccc(C)o1)N(C(=O)c1snc(C(N)=O)c1N)c1cc(C)cc(C)c1 (stereo not given) | inconclusive [inhibitor, partial curve, poor fit]
COc1ccc(-c2nnc(SCC(=O)N3CCCCC3)o2)cc1OC | inconclusive [inhibitor, full curve, poor fit]
CCC(CC)C(=O)OCC(=O)Nc1ccc(S(=O)(=O)N2CCOCC2)cc1OC | inactive

Compound | Potency
COc1ccccc1C(=O)NC(=O)COc1cc(Cl)ccc1Cl | inconclusive [inhibitor, full curve]
COC(=O)[C@H]1[C@H]2C[C@H]3c4[nH]c5ccccc5c4CCN3C[C@H]2CC[C@@H]1O | inactive
CCOc1ccc(C(=O)NCC(c2cccs2)N(C)C)cc1OCC (stereo not given) | inconclusive [inhibitor, full curve, poor fit]
CN(C)/C=N/c1[nH]ncc1C#N | inactive
O=C(NC1CCCCC1)C(c1cccs1)N(Cc1cccs1)C(=O)c1ccco1 (stereo not given) | inactive
Cc1ccc(S(=O)(=O)NNC(=S)Nc2ccc(Cl)cc2)cc1 | inactive
Cc1ccc(-n2nc(C)c3c2OC(N)=C(C#N)C3c2cccs2)cc1 (stereo not given) | inactive
CCc1ccc(CNC(=O)CCSCc2ccccc2F)cc1 | inactive
Cc1cccc(N=C2NN=C(c3ccccc3F)CS2)c1C | inactive
COC(=O)c1cc(-c2ccc(Br)cc2)on1 | inconclusive [inhibitor, full curve, poor fit]
CCOC(=O)c1cnc(SC)nc1Oc1cccc(NS(=O)(=O)c2ccc(Cl)cc2)c1 | inconclusive [inhibitor, single point]
CC(NC(=O)c1ccco1)c1nc(-c2ccc(C(C)(C)C)cc2)no1 (stereo not given) | inactive
CCCc1cc(-c2nc(-c3ccc(Cl)cc3)cs2)ccn1 | inactive
O=C(Nc1cccc(Cl)c1)NC1CC2CCC1C2 (stereo not given) | inconclusive [inhibitor, full curve, poor fit]
COC(=O)c1ccc2c(=O)n(Cc3ccco3)c(SCC(=O)Nc3ccccc3Cl)nc2c1 | inactive
COc1ccc(CN(C(=O)CN2C(=O)c3ccccc3S2(=O)=O)C(C(=O)NCC2CCCO2)c2ccncc2)cc1 (stereo not given) | inconclusive [inhibitor, full curve]
O=C(CCCSc1nc2ccccc2[nH]1)Nc1nnc(C2CC2)s1 | inconclusive [inhibitor, full curve, poor fit]
CC(C)(C)c1ccc(-c2n[nH]c(=S)n2-c2ccccc2)cc1 | inactive
Cc1nc(-c2ccc(NC(=O)c3ccccc3C)cc2)cs1 | inactive
COc1ccc(C(=O)n2cnc3ccccc32)cc1 | inconclusive [inhibitor, full curve, poor fit]
CCN(c1cc(C)cc(C)c1)S(=O)(=O)c1nnc(NC(=O)c2cccs2)s1 | inactive
Cc1cc(NC(=O)CCC(=O)N(c2ccccc2C)C(C(=O)NC2CCCC2)c2ccccc2)no1 (stereo not given) | inactive
COc1ccc(CCNC(=O)COc2ccc(S(=O)(=O)N3CCOCC3)cc2)cc1OC | inconclusive [inhibitor, full curve, poor fit]
c1cnc(SCCOc2ccc3c(c2)CCC3)nc1 | inconclusive [inhibitor, full curve, poor fit]

Compound | Potency
Cc1ccc(S(=O)(=O)N2CCN(C(=O)CN3CCCCC3)C2)cc1 | inconclusive [inhibitor, single point]
Cc1ccc(S(=O)(=O)NC2CCCCCC2)cc1C(N)=O | inconclusive [inhibitor, full curve, poor fit]
O=C(c1ccc(F)cc1)N1CCN(C2CC3CCC2C3)CC1 (stereo not given) | inconclusive [inhibitor, full curve, poor fit]
Cc1ccc(-c2ccc(=O)n(Cc3cc(C)ccc3C)n2)cc1 | inconclusive [inhibitor, partial curve, poor fit]
O=C(OCC(=O)N1CCCc2ccccc21)c1cc(S(=O)(=O)N2CCOCC2)ccc1F | inactive
Cc1ccc(C)c(NC(=O)c2ccc3c(c2)N(Cc2ccc(F)cc2)C(=O)CS3=O)c1 (stereo not given) | inactive
Cn1nc([N+](=O)[O-])nc1Sc1ccc(Cl)cc1 | inactive
Cc1ccc(-n2c(C)n[nH]c2=S)cc1 | inactive
COc1ccc(C2(O)CCN(C(=O)c3c(F)cccc3F)CC2)cc1 | inconclusive [inhibitor, full curve, poor fit]
CCCOc1ccc(-c2nnn(CC(=O)N3CCCCC3)n2)cc1 | inconclusive [inhibitor, single point]
CC(=O)Nc1ccc(S(=O)(=O)NCCC(=O)N2CCC(Cc3ccccc3)CC2)cc1 | inconclusive [inhibitor, single point]
COc1ccccc1-c1noc(-c2ccccc2C(=O)Nc2ccccc2)n1 | inconclusive [inhibitor, full curve, poor fit]
CN(c1ccc(C(=O)Nc2cccnc2)cc1)S(C)(=O)=O | inconclusive [inhibitor, full curve, poor fit]
Cn1c(=O)c2c(SCC(=O)N3CCc4ccccc43)nc(-c3ccccc3Cl)nc2n(C)c1=O | inactive
CCOC(=O)Cn1nc(C)n(-c2ccc(F)cc2)c1=O | inconclusive [inhibitor, full curve, poor fit]
Cn1/c(=N/N=C/c2ccc(Cl)c([N+](=O)[O-])c2)sc2ccccc21 | inconclusive [inhibitor, full curve, poor fit]
O=C(CSc1nnc(-c2ccc3c(c2)OCCO3)o1)N1CCCC1 | inconclusive [inhibitor, partial curve]
CCCCOc1ccc(C(=O)NCC(=O)NCC(c2ccco2)N2CCCCC2)cc1 (stereo not given) | inconclusive [inhibitor, full curve, poor fit]
COc1ccc(-c2c3c(nc4sc5c(Cl)nc(C)nc5c24)CCC3)cc1 | inconclusive [inhibitor, full curve, poor fit]
CCc1nnc(NC(=O)C2CCCN(S(=O)(=O)c3ccccc3)C2)s1 (stereo not given) | inactive
CC1c2[nH]c3ccccc3c2CCN1C(=O)Nc1ccccc1 (stereo not given) | inconclusive [inhibitor, full curve, poor fit]
COc1ccc(OC)c(Nc2cc(C)nc3nc(C)nn23)c1 | inconclusive [inhibitor, full curve, poor fit]
